# Laboratory results taken from PubChem BioAssay (NCATS).
# This list was built around the results that the source calls inconclusive (neither active nor inactive); the mix of calls is not that of the screen. For part of these data: No potency is given beside an inconclusive call; the fits are too rough. The source made the active and inactive calls. Calls come from the whole dose curve; as a rule, active = well fitted curve in the direction sought with a large enough effect; inconclusive = small, poorly fitted or top-dose-only effect, or another doubt; inactive = no such curve, though single readings can be large; an effect the other way counts as inactive or inconclusive.
# How the values were obtained:
# [1] = qHTS Screen of the MIPE 4.0 Collection Against Ewings Sarcoma (EW8) (AID 1259255); note: nearly all actives have a fitted effect of over 35% in size; note: potency is the fitted concentration of half-maximal effect
# Method in brief: (§1)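 After a 4 h attachment period in RPMI/5% FBS, cells were pin-dosed with test compounds; DMSO served as negative and 9.2 uM bortezomib (final) as positive control. Luminescent CellTiter-Glo signal at 48 h defined viability.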
# [2] = qHTS Screen of the MIPE 4.0 Collection Against Ewings Sarcoma (TC32) (AID 1259256); note: nearly all actives have a fitted effect of over 45% in size; note: potency is the fitted concentration of half-maximal effect
# Method in brief: as §1
# [3] = qHTS assay to identify small molecule inhibitors of chordoma cells - UCH-1 (AID 1259355); note: nearly all actives have a fitted effect of over 55% in size; note: potency is the fitted concentration of half-maximal effect
# Method in brief: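 800 cells/well, overnight attach; compounds pinned at 15 concs, then auranofin/camptothecin/doxorubicin/rubitecan/topotecan combo added; 48hr 37 C, 5% CO2; CellTiter-Glo, 30min RT, luminescence.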
# [4] = Identifying Small Molecule Inhibitors of Pancreatic Cancer Stem Cells (A2780, Spheroid) (AID 1259357); details: Potency: A2780 spheroid viability; series mostly up to 46.1 µM;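 note: potency is the fitted concentration of half-maximal effect; compound exposure lasted 48 h before the ATP luminescence read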
# Method in brief: (§2)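 Viability is scored by CellTiter-Glo luminescence 48 h after dosing, expressed as percent activity against vehicle and no-cell references. Spheroid formats rely on cells cultured 14 days in stem cell media beforehand.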
# [5] = Identifying Small Molecule Inhibitors of Pancreatic Cancer Stem Cells (Panc1, Spheroid) (AID 1259359); details: Panc1 spheroid cancer stem cell viability; series mostly up to 46.1 µM;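 note: potency is the fitted concentration of half-maximal effect; compound exposure lasted 48 h before reading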
# Method in brief: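 Monolayer and spheroid cultures are compared. Spheroids form over 14 days in stem cell medium on hydrogel-coated low-attachment plates, then are exposed to compound for 48 h before CellTiter-Glo luminescence.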
# [6] = Identifying Small Molecule Inhibitors of Pancreatic Cancer Stem Cells (SN12C, Spheroid) (AID 1259360); details: Potency: SN12C spheroid viability
# Method in brief: as §2
# [7] = Identifying Small Molecule Inhibitors of Pancreatic Cancer Stem Cells (A278, Adherent) (AID 1259361); details: viability (% of control): at 46.1 µM (top of the series) unless noted;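 note: viability read after 48 h compound exposure; nearly all actives have a fitted effect of over 35% in size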
# Method in brief: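 Adherent (2D) versus sphere (3D) formats; spheres generated 14 d in SCM beforehand. Compound transferred by pin tool after 4 h, 48 h incubation, CellTiter-Glo endpoint.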
# Tags give direction and shape of the fitted curve.
smiles,measurement,setting,value
Cc1cnc(-c2cc(N3CCN(C(=O)CCS(C)(=O)=O)CC3)ncc2Cl)c(C)c1,Potency,[1],inactive
same,Potency,[2],"inconclusive [inhibitor, partial curve, poor fit]"
Clc1ccc2c(N3CCN(CCCN4CCN(c5ccnc6cc(Cl)ccc56)CC4)CC3)ccnc2c1,Potency,[1],inactive
same,Potency,[2],inactive
COc1cc2c(cc1OC)CC(=O)N(CCCN(C)C[C@H]1Cc3cc(OC)c(OC)cc31)CC2,Potency,[1],"inconclusive [inhibitor, single point]"
same,Potency,[2],"inconclusive [inhibitor, partial curve]"
same,Potency,[3],inactive
same,Potency,[4],"inconclusive [rising, full curve, poor fit]"
same,Potency,[5],inconclusive [cytotoxic]
same,Potency,[6],inactive
same,IC50 (viability decrease),[7],inactive
Cc1[nH]c(C=C2C(=O)Nc3ccc(S(=O)(=O)N(C)c4cccc(Cl)c4)cc32)c(C)c1C(=O)N1CCN(C)CC1,Potency,[1],active: 26.4 µM
same,Potency,[2],"inconclusive [inhibitor, single point]"
CC(C=CC(=O)NO)=C[C@@H](C)C(=O)c1ccc(N(C)C)cc1,Potency,[1],active: 0.187 µM
same,Potency,[2],active: 0.332 µM
CN(C)CCc1c[nH]c2ccc(C[C@H]3COC(=O)N3)cc12,Potency,[1],inactive
same,Potency,[2],inactive
same,Potency,[3],"inconclusive [cytotoxic, single point]"
Nc1ccn([C@@H]2CS[C@H](CO)O2)c(=O)n1,Potency,[1],inactive
same,Potency,[2],inactive
CCOC(=O)c1ncn2c1CN(C)C(=O)c1cc(F)ccc1-2,Potency,[1],"inconclusive [inhibitor, single point]"
same,Potency,[2],active: 13.2 µM
Nc1nc(F)nc2c1ncn2[C@@H]1O[C@H](CO)[C@@H](O)[C@@H]1O,Potency,[1],active: 0.469 µM
same,Potency,[2],active: 1.32 µM
CCNC(=O)[C@H]1O[C@@H](n2cnc3c(N)nc(NCCc4ccc(CCC(=O)O)cc4)nc32)[C@H](O)[C@H]1O,Potency,[1],"inconclusive [inhibitor, partial curve, poor fit]"
same,Potency,[2],"inconclusive [inhibitor, partial curve, poor fit]"
O=C(NCCCCN1CCOCC1)c1cc2ccccc2o1,Potency,[1],"inconclusive [inhibitor, single point]"
same,Potency,[2],inactive
c1cc(OCCN2CCCCC2)cc(-c2n[nH]c3ccc(-c4ncn[nH]4)cc23)c1,Potency,[1],"inconclusive [inhibitor, partial curve]"
same,Potency,[2],"inconclusive [inhibitor, partial curve]"
CC(C)Oc1ccc(C(=O)N[C@H](CNC(=O)CN(C)C)Cc2ccc(-c3cn4cccc([C@H](C)O)c4n3)cc2)cc1Cl,Potency,[1],active: 0.235 µM
same,Potency,[2],active: 0.0042 µM
Cc1ccc2c(=O)c3cccc(CC(=O)O)c3oc2c1C,Potency,[1],"inconclusive [inhibitor, single point]"
same,Potency,[2],"inconclusive [inhibitor, single point]"
c1nc2nc(Nc3ccc(N4CCOCC4)cc3)nc(NC3CCCCC3)c2[nH]1,Potency,[1],active: 2.35 µM
same,Potency,[2],active: 1.87 µM
Cc1ccc(S(=O)(=O)NC(=O)NN2CC3CCCC3C2)cc1 (stereo unspecified),Potency,[1],"inconclusive [inhibitor, single point]"
same,Potency,[2],"inconclusive [inhibitor, partial curve]"
same,Potency,[3],"inconclusive [cytotoxic, full curve, poor fit]"
Nc1nc(=O)n([C@H]2CSC(CO)O2)cc1F (stereo partly specified),Potency,[1],inactive
same,Potency,[2],inactive
COc1ccc(-c2cc3nccn3c(Nc3ncccc3C(N)=O)n2)cc1OC,Potency,[1],"inconclusive [inhibitor, partial curve]"
same,Potency,[2],"inconclusive [inhibitor, partial curve]"
CC(C)(S)[C@@H](N)C(=O)O,Potency,[1],inactive
same,Potency,[2],inactive
Cn1c(NCCN(CCO)CCCc2ccc([N+](=O)[O-])cc2)cc(=O)n(C)c1=O,Potency,[1],"inconclusive [inhibitor, partial curve]"
same,Potency,[2],"inconclusive [inhibitor, single point]"
Fc1ccc([C@@H]2CCNC[C@H]2COc2ccc3c(c2)OCO3)cc1,Potency,[1],"inconclusive [inhibitor, single point]"
same,Potency,[2],"inconclusive [inhibitor, full curve, poor fit]"
COc1ccc(-c2cc(=O)c3c(O)cc(O[C@@H]4O[C@H](CO[C@@H]5O[C@@H](C)[C@H](O)[C@@H](O)[C@@H]5O)[C@@H](O)[C@H](O)[C@@H]4O)cc3o2)cc1O,Potency,[1],"inconclusive [inhibitor, single point]"
same,Potency,[2],active: 26.4 µM
